For part of its entries the source gives two or more results. The other results are left out here. An entry can have further records. Values given together repeat one measurement across runs, samples, wells, individuals or studies. Brackets with × give the number of equal values in this list. Dates in brackets are months of testing.
Test system: 171881-019-R-J1-PDC complex spheroid growth, % test/control
Assay: Anticancer human tumor 171881-019-R-J1-PDC patient-derived invasive breast carcinoma cell line growth inhibition [Asc]
Settings: stronger effect = lower value
Procedure: Multicellular complex tumor spheroid response to apoptosis pathway targeting inhibitors Alrizomadlin, Pelcitoclax, and Dasminapant in combination with a variety of drugs and investigational agents in selected tumor cell lines
The MDM2 inhibitor alrizomadlin, the Bcl-2/Bcl-xL inhibitor pelcitoclax, and the IAPs inhibitor dasminapant were evaluated both individually and in combination with standard of care and investigational anticancer small molecules within a complex spheroid model of solid tumors. . Complex spheroids include a stromal component modeled by human endothelial cells (HUVEC) and fibroblasts modeled by human mesenchymal stem cells (MSCs). The concentration ranges selected for each drug and investigational agent were based upon clinically achievable concentrations if the clinical Cmax of the agent was known.
Compounds. The drugs and investigational agents: alrizomadlin (APG-115; NSC831270), pelcitoclax (APG-1252; NSC835773), dasminapant (APG-1387;NSC834197), TAK-243 (NSC785004), copanlisib (NSC809693), olaparib (NSC753686), talazoparib (NSC767125), cobimetinib (NSC 768068), eltanexor (KPT-8602, NSC 794443), abemaciclib (NSC 768073), sotorasib (NSC818433), adagrasib (NSC 831453), MRTX-1133 (NSC 836407), Iadademestat (ORY1001, NSC 806812), and RMC-4630 (NSC839698), were obtained from the NCI Developmental Therapeutics Program Chemical Repository. The FDA-approved anticancer drug set is available from the Developmental Therapeutics Program at https://dtp.cancer.gov/organization/dscb/obtaining/available plates.htm. […] The stock solutions were prepared in dimethyl sulfoxide (DMSO, Sigma-Aldrich, St. Louis, MO, cat. D2650) at 800-fold the tested concentration and stored at -70 degrees C prior to their use. All drugs and investigational agents were tested over a range starting from a high concentration at or near the clinical Cmax and decreasing in half-log increments. If the clinical Cmax for an agent had not been determined, the highest concentration tested was 10 microM.
The patient-derived cancer (PDC) cell lines include five colon adenocarcinomas: 186277-243-T-J2-PDC, 616215-338-R-J1-PDC, 439559-082-T-J2-PDC, 463943-066-T-J2-PDC, and 519858-162-T-J1-PDC; three pancreatic carcinomas: 323965-272-R-J2-PDC, 521955-158-R6-J3-PDC, and 521955-158-R2-J5-PDC; two uterine sarcomas: 327498-152-R-J2-PDC and 993429-296-R-J1-PDC; two rhabdomyosarcomas: 755483-174-R-J1-PDC and 772245-204-R-J1-PDC; two soft tissue sarcomas: 126254-015-R-J1-PDC and 494315-158-R-J1-PDC; two malignant fibrous histiocytomas: 317291-083-R-J1-PDC and 596521-263-R-J1-PDC; two breast carcinomas: 171881-019-R-J1-PDC and 885512-296-R-J2-PDC; and one ovarian carcinoma: 6556581-035-R-J-PDC were obtained from the NCI PDMR, (https://pdmr.cancer.gov). The established cell lines HSSY-2 synovial sarcoma (RRID:CVCL 8719), SYO-1 synovial sarcoma (RRID:CVCL_7146), MPNST malignant peripheral neural sheath tumor were obtained from the Sloan Kettering Institute. The following established cell lines were purchased from the American Type Culture Collection (ATCC, Manassas, VA), Sor the received from the NCI repository:, PANC-1 pancreatic carcinoma (CRL-1469, RRID:CVCL_0480), OVCAR-5 ovarian carcinoma (RRID:CVCL_1628), OVCAR-8 ovarian carcinoma (RRID:CVCL_1629), , MCF-7 breast carcinoma (CRL-12584, RRID:CVCL_0031), MDA-MB-231 breast carcinoma (CRL-12532, RRID:CVCL_0062), NCI-H1876 small cell lung carcinoma (CRL-5902, RRID:CVCL_1503), NCI-H510A small cell lung carcinoma (HTB-184, RRID:CVCL_1565), NCI-H1417 (CRL-5869, RRID:CVCL_1469), and NCI-H196 small cell lung carcinoma (CRL-5823, RRID:CVCL_1509). Dr. Peter Houghton (Greehey Children's Cancer Research Institute, University of Texas Health Science Center, San Antonio, TX) provided Rh-18 rhabdomyosarcoma (RRID:CVCL_1659). Pooled donor human umbilical vein endothelial cells (HUVEC, Lonza, cat. CC-2519) and human mesenchymal stem cells (hMSC, Lonza, cat. PT-2501) were purchased from Lonza (Walkersville, MD).
Cell Culture. […]
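Further: spheroids exposed to compounds for 7 days.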

| SMILES | viability, T/C (compound alone 0.03 µM) | viability, T/C (compound alone 0.0949 µM) | viability, T/C (compound alone 0.3 µM) | viability, T/C (compound alone 0.949 µM) | viability, T/C (compound alone 3 µM) | viability, T/C (compound alone 0.01 µM) | viability, T/C (compound alone 0.0316 µM) | viability, T/C (compound alone 0.316 µM) | viability, T/C (compound alone 1 µM) | viability, T/C (compound alone 3.16 µM) |
| --- | --- | --- | --- | --- | --- | --- | --- | --- | --- | --- |
| CCN1C(C(=O)NC23CCC(C(=O)O)(CC2)CC3)C(c2cccc(Cl)c2F)C2(C(=O)Nc3cc(Cl)ccc32)C12CCCCC2 (configuration not stated) | 88, 118, 97.5, 90.6, 123, 111, 117, 95.9, 101, 115, 96, 105, 79.7, 87.5% [2022-09] and 90.9% [2022-10] | 96.4, 95.4, 108, 98.6, 96.2, 98.7, 107, 91, 97.6, 102, 96.8, 111, 103, 79.1% [2022-09] and 102% [2022-10] | 112, 109, 108 (2×), 93.1, 114, 110, 98.7, 106, 95.7, 105, 121, 97, 99.7% [2022-09] and 109% [2022-10] | 110 (3×), 98.7, 98.3, 96, 99.8, 128, 103, 105, 112, 113, 106, 77.8% [2022-09] and 115% [2022-10] | 111, 122, 91.5, 97.2, 104, 119, 115, 90.8, 101, 108, 87.7, 113, 98.7, 82.6% [2022-09] and 114% [2022-10] | – | – | – | – | – |
| CNC(C)C(=O)NC1CN(S(=O)(=O)c2cccc(S(=O)(=O)N3CCC4CCC(C(=O)NC(c5ccccc5)c5ccccc5)N4C(=O)C(NC(=O)C(C)NC)C3)c2)CCC2CCC(C(=O)NC(c3ccccc3)c3ccccc3)N2C1=O (configuration not stated) | – | – | – | – | – | 95.4%, 86.7% [2022-09] and 94.8, 95.4, 83, 98.7, 107, 89.6, 94 (2×), 79, 106, 94.5, 90.5, 83.5% [2022-10] | 98.3%, 100% [2022-09] and 109 (2×), 87.8, 96.5, 87.2, 103, 98.7, 83.1, 95.2, 96.1, 101, 89.9, 95% [2022-10] | 82.7%, 94.2% [2022-09] and 94, 90.3, 91.4, 88.2, 106, 92.8, 95.2, 82.1, 109 (2×), 88.7, 90.6, 93.4% [2022-10] | 97.4%, 79.2% [2022-09] and 86.8, 93.3, 97.7, 97.1, 111, 110, 90.9, 79.3, 93.8, 101, 90.5, 99.5, 102% [2022-10] | – |
| Cc1c(S(C)(=O)=O)c(-c2cc(F)cc(N3CCN(c4ccc(NS(=O)(=O)c5ccc(NC(CCN6CCC(C(=O)OCCCP(=O)(O)O)CC6)CSc6ccccc6)c(S(=O)(=O)C(F)(F)F)c5)cc4)CC3)c2)c(-c2ccc(Cl)cc2)n1C(C)C (configuration not stated) | – | – | – | – | – | – | – | 119 (2×), 118, 108, 121 (2×), 117, 91.5, 109, 111 (2×), 124, 98.3, 133% | 155, 128, 135, 122, 125, 132 (3×), 120 (2×), 107, 131, 140, 160% | 172, 167 (2×), 143, 183, 148, 149, 110, 155, 141, 152, 145, 156, 153% |

Reference: PubChem BioAssay AID1963428 (Molecular Pharmacology Branch, DTP, NCI, 2024)
